Laboratory results: the supplement of paper PMC9446081
Hit rate of the full screen: of about 39,000 compounds, about 220 (0.56%) showed activity. The list shows a part of the results.

system: Escherichia coli K-12 BW25113; assay: relative growth (OD600 normalised to plate interquartile mean) (fraction); higher = less growth inhibition, active = 0.2 or less; conditions: 50 µM; LB; incubation time: overnight (16-24 h)
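Further: static incubation at 37 °C against the wild-type strain, values averaged over two biological replicates.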

SMILES	relative growth
Cc1ccc(-c2cccc(C(=O)N[C@H]3CC[C@@H](N)CC3)c2)o1	inactive: 0.976
CC(=O)C1(O)CCC2C3CCC4=CC(=O)CCC4(C)C3CCC21C (configuration not stated)	inactive: 1.03
CC(=O)N[C@H]1C/C=C/C[C@@H](CC(=O)NCc2ccc(Cl)cc2)C(=O)NC[C@@H](c2ccccc2)OC1=O	inactive: 0.986
Cc1ccccc1CCCCN	inactive: 1.02
O=C(C[C@H]1C[C@H]2c3cc(NC(=O)Nc4ccc(C(F)(F)F)cc4)ccc3O[C@H]2[C@@H](CO)O1)NCCc1ccccc1	inactive: 0.951
Cc1noc(C)c1NC(=O)Nc1ccc2c(c1)C(=O)N([C@@H](C)CO)C[C@@H](C)[C@H](CN(C)Cc1ccc(C(=O)O)cc1)OCCCC[C@@H](C)O2	inactive: 1.01
C[C@H]1CCCCO[C@H](CN(C)C(=O)CCC(F)(F)F)[C@@H](C)CN([C@@H](C)CO)C(=O)c2cc(NC(=O)CCC(F)(F)F)ccc2O1	inactive: 0.975
CO[C@@H]1CN(C)C(=O)c2ccc(NS(=O)(=O)c3cn(C)cn3)cc2OC[C@H](C)N(Cc2cccc(F)c2)C[C@H]1C	inactive: 1.02
C[C@@H]1CN([C@H](C)CO)C(=O)c2cc(NC(=O)Nc3cccc4ccccc34)ccc2O[C@@H]1CN(C)Cc1ccc(C(F)(F)F)cc1	inactive: 1.02
COc1ccc(NC(=O)N(C)C[C@H]2OCCCC[C@@H](C)Oc3ccc(NC(=O)c4ccncc4)cc3C(=O)N([C@H](C)CO)C[C@H]2C)cc1	inactive: 0.984
C[C@@H]1CN([C@@H](C)CO)C(=O)c2cc(NS(=O)(=O)c3cccs3)ccc2O[C@H]1CN(C)S(C)(=O)=O	inactive: 0.987
CN1C(=O)c2cc(NC(=O)c3cccs3)ccc2OC[C@@H]2O[C@@H](CC(=O)NCCN3CCCCC3)CC[C@H]21	inactive: 1.02
CC(C)NC(=O)Nc1ccc2c(c1)C(=O)N([C@@H](C)CO)C[C@@H](C)[C@H](CN(C)Cc1ccc(C(F)(F)F)cc1)OCCCC[C@@H](C)O2	inactive: 1.02
C[C@@H]1CN([C@@H](C)CO)C(=O)c2cc(C#CC3(O)CCCC3)cnc2O[C@@H]1CN(C)C(=O)Cc1ccccc1	inactive: 0.998
Cc1noc(C)c1S(=O)(=O)Nc1ccc2c(c1)CC(=O)N([C@H](C)CO)C[C@@H](C)[C@@H](CN(C)S(=O)(=O)c1cccs1)O2	inactive: 0.988
CCCN(C)C[C@@H]1OCCCC[C@@H](C)Oc2ccc(NS(=O)(=O)c3cn(C)cn3)cc2C(=O)N([C@H](C)CO)C[C@@H]1C	inactive: 0.984
C[C@@H]1CCCCO[C@H](CN(C)C(=O)Cc2ccccc2)[C@H](C)CN([C@H](C)CO)C(=O)c2cc(NC(=O)Nc3ccc(F)cc3)ccc2O1	inactive: 1.02
